Results: the supplement of paper PMC11417369
This is one part of the list.

tested on: PfSIP2 AP2 domain 1 (GST-tagged); test: gcPBM binding intensity (ln(normalized median fluorescence intensity)); higher = stronger DNA binding
Summary of the method: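 An Agilent 4 × 180k array of primer-extended double-stranded 36-bp intergenic genomic probes, with negative controls, was incubated for 1 h with GST-tagged P. falciparum DNA-binding domains expressed in E. coli. Alexa488 anti-GST antibody detected bound protein, scanned at 488 nm. Binding intensity is the highest Masliner-normalised natural-log median intensity across replicate spots of either probe orientation.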

Point of comparison: “GTATTATATTTCAACTGTACGTAAAACTATTAAAAT [XGTACX_site3679]”, “gcPBM binding intensity (ln)” value 7.6. Against it:
- ATAATATGAAAACACACACACACACTAATAAAAAAA [CACACA_site8617] — lower, 7.25
- ATATAAAAATTAAAATGTACATATCTTATTATAATA [XGTACX_site983] — lower, 7.07
- TAATAAAATAATATCACACATATTTATATATATTAT [CACACA_site5814] — lower, 6.73
- CAACATAAAAATTAAGCATGCAATAGACTTGTGTTG [TGCATGCA_site417] — lower, 6.65
- GTTTAAAAAAATTATCAACTTTAAAAAGGTAACATT [XGTACX_negctrl_site203] — lower, 6.78
- GTAGTAAATAGGAGGATGCATATGGCACACATTATA [TGCATGCA_negctrl_site59] — higher, 7.91
- ATAAAAAGGAAACACACACACACACCCATATATATA [CACACA_site904] — lower, 7.3
- TGAATAATATACATACGTACATACATATATATAATA [XGTACX_site1302] — lower, 7.05
- TTTTTTTTTTTTTTTTTTTTCATTCAATTATATTTA [CACACA_negctrl_site712] — lower, 6.96
- TTATCACATAAACGATGTACGTACTAGGTTTTTTTT [XGTACX_site2147] — lower, 6.92
- AAAGGAATATAATGATGTACACAAATATATATACAT [XGTACX_site5347] — lower, 7.06
- AACTAATATAATAATACATGCACATAAAAATATATA [TGCATGCA_site606] — higher, 8.89
- CACGCATACGGACACACACACACACCGATATATATA [CACACA_site4521] — lower, 7.44
- TATTTTTTTATTTGTGCATGTCATATTTAAACATAA [TGCATGCA_site1006] — higher, 7.83
- TATAAATTTGTTGTTGCATGCAGTATACCAAAAAAA [TGCATGCA_site445] — lower, 7.46
- ATTTGTAATTTATATTCACACATTCAAAAAAATGAG [CACACA_site6057] — lower, 6.84
- AAAAATATAATATAATGTACACAAAAAAAAAAAAAT [XGTACX_site4914] — lower, 7.13
- TAAAATGTAATCTGAACACACATATTTTTTTAATAT [CACACA_site1768] — lower, 6.81
- AATAGCCCATATGGAATACACACTGAAAATAAAAAA [CACACA_site3373] — lower, 6.92
- CCATAAAAAGGATACACACACACACCGACATATATA [CACACA_site4653] — lower, 7.04
- TTCATTTAGCAAGAATGTACTTATATATATATATAT [XGTACX_site3401] — higher, 8.81
- ATAAAGCCATACAATACACACATTTTACATGGGGGT [CACACA_site9072] — higher, 7.72
- CAAAAAAATGTGAAGGCATGCAAATATGTAAAATAA [TGCATGCA_site921] — lower, 6.83
